# This is one part of the list.
# Legend:
# Assay in all cases: glycan array binding signal (z-score within array); higher = stronger binding
# Settings in all cases: glycan notation: IUPAC condensed, linker removed
# [1] = biological target: GlcNAc(b1-4)[GlcNAc(b1-6)]GalNAc
# Procedure, shortened: (§1)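 The Consortium for Functional Glycomics database supplied 3228 glycan arrays, of which those lacking an available protein sequence were dropped. The binding signal, a within-array Z-score, was averaged across arrays of the same protein sequence and across linkers. Negative scores can be read as non-binding.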
# [2] = biological target: GlcNAc(b1-6)Gal(b1-4)GlcNAc
# Procedure, shortened: as §1
# [3] = biological target: GlcNAc(b1-6)GalNAc
# Procedure, shortened: as §1
# [4] = biological target: Kdn(a2-3)Gal(b1-3)GlcNAc
# Procedure, shortened: as §1
# [5] = biological target: Kdn(a2-3)Gal(b1-4)GlcNAc
# Procedure, shortened: as §1
# [6] = biological target: Man(a1-2)Man(a1-2)Man(a1-3)Man
# Procedure, shortened: as §1
# [7] = biological target: Man(a1-2)Man(a1-2)Man(a1-3)[Man(a1-2)Man(a1-3)[Man(a1-2)Man(a1-6)]Man(a1-6)]Man(b1-4)GlcNAc(b1-4)GlcNAc
# Procedure, shortened: as §1
# [8] = biological target: Man(a1-2)Man(a1-2)Man(a1-3)[Man(a1-2)Man(a1-6)[Man(a1-3)]Man(a1-6)]Man(b1-4)GlcNAc(b1-4)GlcNAc
# Procedure, shortened: as §1
# [9] = biological target: Man(a1-2)Man(a1-2)Man(a1-6)[Man(a1-3)]Man
# Procedure, shortened: as §1
# [10] = biological target: Man(a1-2)Man(a1-3)Man
# Procedure, shortened: as §1
# [11] = biological target: Man(a1-2)Man(a1-3)[Man(a1-2)Man(a1-6)]Man
# Procedure, shortened: as §1
# [12] = biological target: Man(a1-2)Man(a1-3)[Man(a1-3)[Man(a1-6)]Man(a1-6)]Man(b1-4)GlcNAc(b1-4)GlcNAc
# Procedure, shortened: as §1
# [13] = biological target: Man(a1-2)Man(a1-3)[Man(a1-6)]Man(a1-6)[Man(a1-2)Man(a1-3)]Man(b1-4)GlcNAc(b1-4)GlcNAc
# Procedure, shortened: as §1
# [14] = biological target: Man(a1-3)[Man(a1-6)]Man
# Procedure, shortened: as §1
# [15] = biological target: Man(a1-3)[Man(a1-6)]Man(a1-6)[Man(a1-3)]Man(b1-4)GlcNAc(b1-4)GlcNAc
# Procedure, shortened: as §1
# [16] = biological target: Man(a1-3)[Man(a1-6)]Man(b1-4)GlcNAc(b1-4)GlcNAc
# Procedure, shortened: as §1
# [17] = biological target: Man(b1-4)GlcNAc
# Procedure, shortened: as §1
# [18] = biological target: Neu5Ac(a2-3)Gal
# Procedure, shortened: as §1
# [19] = biological target: Neu5Ac(a2-3)Gal(b1-3)GalNAc
# Procedure, shortened: as §1
# [20] = biological target: Neu5Ac(a2-3)Gal(b1-3)GalNAc(b1-3)Gal(a1-4)Gal(b1-4)Glc
# Procedure, shortened: as §1
# [21] = biological target: Neu5Ac(a2-3)Gal(b1-3)GalNAc(b1-4)[Neu5Ac(a2-3)]Gal(b1-4)Glc
# Procedure, shortened: as §1
# [22] = biological target: Neu5Ac(a2-3)Gal(b1-3)GalNAc6S
# Procedure, shortened: as §1
# [23] = biological target: Neu5Ac(a2-3)Gal(b1-3)GlcNAc
# Procedure, shortened: as §1
# [24] = biological target: Neu5Ac(a2-3)Gal(b1-3)GlcNAc(b1-3)Gal(b1-4)GlcNAc
# Procedure, shortened: as §1
# [25] = biological target: Neu5Ac(a2-3)Gal(b1-3)GlcNAc6S
# Procedure, shortened: as §1
# [26] = biological target: Neu5Ac(a2-3)Gal(b1-3)[Fuc(a1-4)]GlcNAc
# Procedure, shortened: as §1
# [27] = biological target: Neu5Ac(a2-3)Gal(b1-3)[Fuc(a1-4)]GlcNAc(b1-3)Gal(b1-4)[Fuc(a1-3)]GlcNAc
# Procedure, shortened: as §1
# [28] = biological target: Neu5Ac(a2-3)Gal(b1-3)[Neu5Ac(a2-3)Gal(b1-4)]GlcNAc
# Procedure, shortened: as §1
# [29] = biological target: Neu5Ac(a2-3)Gal(b1-3)[Neu5Ac(a2-6)]GalNAc
# Procedure, shortened: as §1
# [30] = biological target: Neu5Ac(a2-3)Gal(b1-4)Glc
# Procedure, shortened: as §1
# [31] = biological target: Neu5Ac(a2-3)Gal(b1-4)GlcNAc
# Procedure, shortened: as §1
# [32] = biological target: Neu5Ac(a2-3)Gal(b1-4)GlcNAc(b1-3)Gal(b1-4)GlcNAc
# Procedure, shortened: as §1
# [33] = biological target: Neu5Ac(a2-3)Gal(b1-4)GlcNAc(b1-3)Gal(b1-4)GlcNAc(b1-3)Gal(b1-4)GlcNAc
# Procedure, shortened: as §1
# [34] = biological target: Neu5Ac(a2-3)Gal(b1-4)GlcNAc(b1-3)Gal(b1-4)[Fuc(a1-3)]GlcNAc
# Procedure, shortened: as §1
binder,measurement,setting,value
"CVNH0 (Neurospora crassa), Q7S6U4 (protein) GSHIGPYMSFHVTAEDARIEVRDNRTILFARLRREDGEWNDASYELDQIIGNNDGHFQWGGQNFTETAEDIRFHPKEGAAEQPILRARLRDCNGEFHDRDVNLTEIVENVNGEFQAKF",glycan array binding signal (z-score),[1],-0.417
same,glycan array binding signal (z-score),[2],-0.407
same,glycan array binding signal (z-score),[3],0.422
same,glycan array binding signal (z-score),[4],-0.44
same,glycan array binding signal (z-score),[5],-0.442
same,glycan array binding signal (z-score),[6],2.87
same,glycan array binding signal (z-score),[7],3.89
same,glycan array binding signal (z-score),[8],0.597
same,glycan array binding signal (z-score),[9],3.68
same,glycan array binding signal (z-score),[10],-0.112
same,glycan array binding signal (z-score),[11],4.06
same,glycan array binding signal (z-score),[12],-0.376
same,glycan array binding signal (z-score),[13],-0.132
same,glycan array binding signal (z-score),[14],-0.235
same,glycan array binding signal (z-score),[15],-0.298
same,glycan array binding signal (z-score),[16],-0.429
same,glycan array binding signal (z-score),[17],-0.435
same,glycan array binding signal (z-score),[18],-0.431
same,glycan array binding signal (z-score),[19],-0.438
same,glycan array binding signal (z-score),[20],-0.282
same,glycan array binding signal (z-score),[21],-0.439
same,glycan array binding signal (z-score),[22],-0.449
same,glycan array binding signal (z-score),[23],-0.423
same,glycan array binding signal (z-score),[24],-0.43
same,glycan array binding signal (z-score),[25],0.204
same,glycan array binding signal (z-score),[26],-0.442
same,glycan array binding signal (z-score),[27],2.62
same,glycan array binding signal (z-score),[28],-0.411
same,glycan array binding signal (z-score),[29],-0.437
same,glycan array binding signal (z-score),[30],0.741
same,glycan array binding signal (z-score),[31],-0.323
same,glycan array binding signal (z-score),[32],-0.351
same,glycan array binding signal (z-score),[33],-0.353
same,glycan array binding signal (z-score),[34],-0.434

# — the supplement of paper PMC8728848
